Data: PubChem BioAssay AID1460 (National Center for Advancing Translational Sciences (NCATS), 2008)
Out of some 270,000 compounds screened, about 5,800 (2.1%) were called active. This list was built around the results that the source calls inconclusive (neither active nor inactive); the mix of calls is not that of the screen. Calls follow the shape of the dose curve; as a rule, active = well fitted inhibition curve with a large enough effect; inconclusive = small, poorly fitted or top-dose-only effect; inactive = flat fitted curve, though single readings scatter. Potencies of inconclusive entries are doubtful fits and often do not repeat.

The compounds below were run against Microtubule-associated protein tau (Homo sapiens) (UniProt P10636) (assay: qHTS for Inhibitors of Tau Fibril Formation, Thioflavin T Binding). Settings: recombinant tau K18 P301L (four-repeat tau fragment), heparin-induced fibrillization, ThT fluorescence; series mostly up to 57.4 µM.
How it was run: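 Tau K18 P301L fragment (15 uM unlabeled plus 0.24 uM Alexa 594-labeled) in 100 mM sodium acetate pH 7 with compound, fibrillization induced by 20 uM heparin for 6 hr at 37 C. Thioflavin T (30 uM) added, fluorescence read after 1 hr (ex 450, em 510 nm).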
Also: nearly all actives have a fitted effect of over 55% in size.
Potency is read from the fitted curve at half-maximal effect; tags tell the direction and shape of the fitted curve.

Sequence of UniProt P10636 (P10636 whole entry, looked up, the tested form may be a part): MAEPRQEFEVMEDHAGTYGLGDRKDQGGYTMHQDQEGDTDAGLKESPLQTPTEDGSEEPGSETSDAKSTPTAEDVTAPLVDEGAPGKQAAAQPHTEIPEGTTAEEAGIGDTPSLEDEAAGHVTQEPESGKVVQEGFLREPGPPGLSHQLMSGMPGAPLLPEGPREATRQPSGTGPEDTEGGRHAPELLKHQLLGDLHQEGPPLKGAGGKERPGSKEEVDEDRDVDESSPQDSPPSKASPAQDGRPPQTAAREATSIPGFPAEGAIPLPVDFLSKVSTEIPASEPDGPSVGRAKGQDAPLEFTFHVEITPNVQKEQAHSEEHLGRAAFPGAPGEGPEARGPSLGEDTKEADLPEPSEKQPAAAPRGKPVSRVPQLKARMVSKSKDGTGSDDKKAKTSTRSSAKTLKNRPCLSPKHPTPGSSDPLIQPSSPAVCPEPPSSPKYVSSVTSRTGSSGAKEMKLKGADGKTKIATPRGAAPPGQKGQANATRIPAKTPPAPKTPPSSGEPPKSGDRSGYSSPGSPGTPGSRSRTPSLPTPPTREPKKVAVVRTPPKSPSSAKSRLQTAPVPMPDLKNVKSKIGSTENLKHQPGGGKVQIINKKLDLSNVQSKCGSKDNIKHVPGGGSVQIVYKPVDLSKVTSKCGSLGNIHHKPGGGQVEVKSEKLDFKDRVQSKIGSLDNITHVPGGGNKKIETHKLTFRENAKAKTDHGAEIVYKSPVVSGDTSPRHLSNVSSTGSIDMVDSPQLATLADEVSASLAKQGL

Row | Structure (SMILES) | Potency
1 | COc1ccc(N2C(=O)C(Cl)=C(Nc3ccccc3OC)C2=O)cc1 | inconclusive: 14.1 µM [inhibitor, partial curve]
2 | O=C(NCCc1c[nH]c2ccccc12)C(=O)Nc1ccccc1 | inconclusive: 1.26 µM [inhibitor, partial curve, poor fit]
3 | O=C(NCCN1C(=O)S/C(=C\c2ccc(Cl)cc2)C1=O)c1ccc(F)c(S(=O)(=O)N2CCOCC2)c1 | inconclusive: 17.8 µM [inhibitor, partial curve]
4 | CCOc1ccc(C/C(N)=N/n2cnnc2)cc1 | inactive
5 | O=S(=O)(NCc1ccccc1)c1ccc(S(=O)(=O)N(Cc2ccccn2)Cc2ccco2)cc1 | inactive
6 | CCN1CCN(c2ccc(N=Cc3ccccc3O)cc2)CC1 | inconclusive: 31.6 µM [inhibitor, single point]
7 | Cc1ccccc1CNC(=O)c1ccc(CSCc2ccccc2)cc1 | inconclusive: 25.1 µM [inhibitor, partial curve, poor fit]
8 | CCc1ccc(CN(Cc2ccco2)C(=O)c2ccc(OC)cc2)cc1 | inconclusive: 12.6 µM [inhibitor, single point]
9 | O=C(/C=C/Nc1ccc(Br)cc1F)c1ccccc1 | inconclusive: 8.91 µM [inhibitor, partial curve, poor fit]
10 | COc1ccc(NC(=O)N2c3ccccc3C(C)=CC2(C)C)cc1 | inconclusive: 17.8 µM [inhibitor, partial curve, poor fit]
11 | Fc1cccc(NC(=S)NNc2c3ccccc3nc3ccccc23)c1 | active: 7.94 µM
12 | C/C(=N\OC(=O)c1cccc(C)c1)c1sc(-c2ccccc2)nc1C | inconclusive: 3.16 µM [inhibitor, partial curve]
13 | CCOc1cc(C(=O)N2CC(=O)Nc3ccc(C)cc3C2c2ccccc2)cc(OCC)c1OCC (centres undefined) | inactive
14 | CC1=C(C(=O)N(C)C)C(c2cccc(Cl)c2)NC(=O)N1 (centres undefined) | inactive
15 | Cc1nnc(SCc2ccccc2)c2cc3sccc3n12 | active: 22.4 µM
16 | Cc1ccccc1N1CCN(c2ccc(NC(=O)C3CCCCC3C(=O)O)cc2)CC1 (centres undefined) | inconclusive: 15.8 µM [inhibitor, partial curve]
17 | CC(=O)N1CCN(c2ccc(NC(=O)/C=C/c3ccccc3)cc2)CC1 | active: 2.51 µM
18 | CCC1S/C(=N/C(=O)NC2CCCCC2)NC1=O (centres undefined) | inactive
19 | O=C1NC(=Nc2cccnc2)S/C1=C\c1cccc(F)c1 | inconclusive: 22.4 µM [inhibitor, partial curve]
20 | CCN(CC)c1ccc2oc(=O)c(C)nc2c1 | active: 7.94 µM
21 | Cc1ccccc1CS(=O)(=O)CC1Nc2ccc(C(=O)NCc3ccc(Cl)cc3)cc2NC1=O (centres undefined) | inconclusive: 15.8 µM [inhibitor, partial curve]
22 | Cc1ccc(-n2nc(C)c(C(=O)NCCCN3CCN(c4ccc(F)cc4)CC3)c2-n2cccc2)cc1 | inconclusive: 28.2 µM [inhibitor, single point]
23 | CCN(CC)CCOC(=O)c1ccc(NC(=O)Cn2ncc3c([nH]c4ccc(C)cc43)c2=O)cc1 | inactive

Row | Structure (SMILES) | Potency
24 | O=C(c1cnn(C(=O)c2cccc(S(=O)(=O)N3CCOCC3)c2)c1)c1cc(Cl)cc(Cl)c1O | inconclusive: 20 µM [inhibitor, partial curve]
25 | Nc1c(-c2nc(-c3cccs3)no2)nnn1-c1ccccc1Cl | inactive
26 | O=C(NCc1ccco1)C1CCN(C(=O)N2CCOc3ccccc32)CC1 | inconclusive: 35.5 µM [inhibitor, single point]
27 | Cc1ccc(NC(=O)CNC(=O)c2cccs2)cc1S(=O)(=O)Nc1ccc(Cl)cc1 | inactive
28 | O=[N+]([O-])c1ccc(-c2nc(-c3ccc(F)cc3)c(-c3ccncc3)[nH]2)cc1 | active: 14.1 µM
29 | CN(c1ccc(O)cc1)c1nc(-c2cccs2)cs1 | inactive
30 | Cc1cccc(S(=O)(=O)C(C#N)c2nc3ccccc3nc2N2CCCC2)c1 (centres undefined) | inconclusive: 28.2 µM [inhibitor, partial curve]
31 | COC(=O)[C@H](Cc1ccccc1)NC(=O)O[C@H]1C(=O)c2cc(OC)ccc2O[C@@H]1c1ccc(OC)c(Br)c1 | inactive
32 | Cc1cc(C(=O)CSc2nn3c(=O)c(C(C)(C)C)nnc3s2)c(C)n1-c1ccc(F)cc1 | inconclusive: 7.94 µM [inhibitor, partial curve]
33 | C[n+]1cccc(CNC(=O)/C=N/O)c1 | inactive
34 | O=C(Nc1cccc(C(=O)OCc2cc(=O)n3nc(C4CC4)sc3n2)c1)c1ccccc1 | inconclusive: 1.26 µM [inhibitor, full curve, poor fit]
35 | CCOC(=O)c1cccc(NC(=O)c2cc3cc4ccc(C)cc4nc3o2)c1 | inconclusive: 1 µM [inhibitor, full curve]
36 | COc1cc(NS(=O)(=O)c2ccc(N/C=C(\C=O)c3nc4ccccc4o3)cc2)nc(OC)n1 | inactive
37 | CCCCCC(=O)NC(=S)Nc1ccc(N2CCOCC2)cc1 | inconclusive: 20 µM [inhibitor, partial curve, poor fit]
38 | Cn1nc(OC(=O)Nc2ccc(Cl)cc2)cc1C(F)(F)F | inactive
39 | CCOC(=O)c1c(C)[nH]c(C)c1S(=O)(=O)N1CCCC(C(=O)Nc2ccccc2OCC)C1 (centres undefined) | inactive
40 | O=C(CCS(=O)(=O)c1ccccc1)Nc1nc2c(s1)COc1ccccc1-2 | inconclusive: 31.6 µM [inhibitor, partial curve]
41 | Cc1cccc(C)c1NC(=O)NC1CC2CCC(C1)N2Cc1cccs1 (centres undefined) | inactive
42 | Cc1ccccc1CNC(=O)C1CCN(c2nnc(-n3c(C)ccc3C)s2)CC1 | inconclusive: 5.62 µM [inhibitor, partial curve, poor fit]
43 | COCCn1c(N/N=C(C)/C=C/c2ccccc2)nc2c1c(=O)[nH]c(=O)n2C | inconclusive: 17.8 µM [inhibitor, partial curve]
44 | COc1cccc(-c2ccc(SCC(=O)N3CCN(c4ccccc4)CC3)nn2)c1 | inconclusive: 15.8 µM [inhibitor, partial curve]
45 | COCCN=C1Sc2nc3c(C)cccc3cc2CN1Cc1ccco1 | inconclusive: 22.4 µM [inhibitor, partial curve]
46 | CCc1ccc(C(=O)CSC2=C(C#N)C(c3ccco3)C(C(C)=O)=C(C)N2)cc1 (centres undefined) | inconclusive: 25.1 µM [inhibitor, partial curve]

Row | Structure (SMILES) | Potency
47 | Cc1ccc(/C=N/NC(=O)c2ccccn2)o1 | inactive
48 | CCOC(=O)COc1cccc2c(=O)n(CC(=O)N3CCN(C(=O)OCC)CC3)ccc12 | inactive
49 | O=C(CCc1ccc(O)c(O)c1)NNC(=S)Nc1ccc(Br)cc1Cl | inconclusive: 17.8 µM [inhibitor, partial curve]
50 | Cn1c(SCC(=O)N2CCCc3ccccc32)ncc(C(=O)Nc2ccc(F)cc2)c1=O | inconclusive: 25.1 µM [inhibitor, partial curve]
51 | CCOC(=O)c1cnc2ccc(OC)cc2c1NCCc1ccc(OC)c(OC)c1 | inconclusive: 25.1 µM [inhibitor, single point]
52 | Cc1cnc(CNc2nc(-c3ccc(C(=O)N(C)C)cc3)nc3ccccc23)cn1 | inactive
53 | CC(=O)c1nc(N2C(=O)CC(Cc3cc(C)cc(C)c3)C2=O)sc1C (centres undefined) | inactive
54 | Cc1oc(C(C)(C)C)cc1C(=O)Nc1ccc2c(c1)OCO2 | inconclusive: 35.5 µM [inhibitor, single point]
55 | COc1ccc(OC)c(-c2csc(NC(=O)Cn3[nH]c(=O)c4ccccc4c3=O)n2)c1 | inconclusive: 0.708 µM [inhibitor, full curve, poor fit]
56 | Cc1cc(C)nc(-n2nc(C)cc2NC(=O)CN2CCc3ccccc3C2)n1 | inconclusive: 17.8 µM [inhibitor, partial curve]
57 | CCCc1ccc(OC(C)C(=O)Nc2sc3c(c2C(=O)OC)CCCCC3)cc1 (centres undefined) | inconclusive: 17.8 µM [inhibitor, partial curve, poor fit]
58 | Cc1ccc(-c2nc(CS(=O)(=O)CC(=O)N3CCN(c4cccc(C)c4C)CC3)c(C)o2)cc1 | inconclusive: 6.31 µM [inhibitor, partial curve]
59 | COc1ccc(OCC(=O)N2CCN(c3nnc(-c4ccccc4)c4ccccc34)CC2)cc1 | inconclusive: 20 µM [inhibitor, partial curve]
60 | O=C(CCC(=O)c1cccs1)Nc1ccc(N2CCCCC2)cc1 | inconclusive: 12.6 µM [inhibitor, partial curve]
61 | CCOc1cccc(CN2CCN(c3cccc(C(F)(F)F)c3)CC2)c1O | inconclusive: 11.2 µM [inhibitor, partial curve]
62 | Cc1ccccc1-c1noc(-c2cc3ccccc3oc2=O)n1 | inconclusive: 5.62 µM [inhibitor, full curve, poor fit]
63 | COc1ccc(Br)cc1CNC(=O)CSc1cc(=O)n(C)c2ccccc12 | inactive
64 | Cc1ccc(-n2ncc(C(=O)Nc3ccc4c(c3)OCCO4)c2C2CCN(C(=O)OC(C)(C)C)CC2)cc1 | inconclusive: 39.8 µM [inhibitor, single point]
65 | CCN1CCN(c2csc3ccc(C)cc3c2=O)CC1 | inconclusive: 20 µM [inhibitor, single point]
66 | CCOc1ccc(OCC)c(NC(=O)c2cc(CN3CCOCC3)on2)c1 | inactive
67 | Cc1nc2ccccc2nc1N/N=C/c1ccc(O)cc1O | active: 14.1 µM
68 | CC(=O)C1=C(c2ccc(Cl)c(Cl)c2)N(C(C)=O)n2c(nnc2C2CCCCC2)S1 | inconclusive: 28.2 µM [inhibitor, partial curve]
69 | COc1ccc(N2CCN(C(=O)CN3CCN(c4nc(-c5ccc(F)cc5)cs4)CC3)CC2)cc1 | inconclusive: 15.8 µM [inhibitor, partial curve]
